Measurements as given in ChEMBL document CHEMBL4888484, “Replenishing the malaria drug discovery pipeline: Screening and hit evaluation of the MMV Hit Generation Library 1 (HGL1) against asexual blood stage Plasmodium falciparum ,using a nano luciferase reporter read-out” (2022).
The campaign covered roughly 150,000 compounds. About 540 (0.36%) showed an effect of 50% or more. This is one part of the list.

test system: Plasmodium falciparum; test: Primary screen in NF54 nanoGlo assay, in single point, at 2uM, 72h; a lower Z score goes with more inhibition; assay type: functional, Erythrocyte; settings: timepoint 72 hour

Compound | % Inhibition [%] | Z score
Cc1cccc(N2CCN(C(=O)CN3C(=O)C4CC=CCC4C3=O)CC2)c1C (stereo unspecified) | -1 | 0.22
CCCCN(C)C(=O)c1cc(C[C@H](C)c2ccccc2)no1 | -16 | 2.8
Cc1cnc(CNc2ccc3cc[nH]c3n2)cn1 | -12 | 2.2
CCS(=O)(=O)N1CCC[C@H](Oc2ncc(F)cn2)C1 | -1 | 0.15
CC[C@H]1CN(S(=O)(=O)c2c(C)noc2C)CC[C@H]1CC(=O)Nc1nccs1 | 10 | -1.13
COc1ccc(NC(=O)c2occc2-c2ccccc2)cc1OC | 5 | -0.63
O=c1c2cc(Br)ccc2nc(-c2ccc(Cl)c(F)c2)n1Cc1ccccc1 | 1 | -0.07
c1ccc(CNc2ncc(CN3CCC(c4ccncn4)CC3)cn2)cc1 | 1 | -0.16
COc1ccc2c(c1)CCN(Cc1cc(C#N)n(C)c1C)C2 | 12 | -2
COc1ccc(-c2cn3c(C(=O)N4CCNC(=O)C4)csc3n2)cc1F | -19 | 2.43
Cc1noc(C)c1CN(C)C(=O)c1ccc(O)c(Cl)c1 | -8 | 1.32
Cc1cccc(Nc2nc(C)c(C(=O)NCc3ccc4c(c3)OCO4)s2)n1 | -10 | 1.6
Clc1ccccc1-c1cncnc1[C@H]1CCCNC1 | -8 | 1.13
Cc1c(CCNC(=O)[C@H]2CCS(=O)(=O)C2)c2cccc3c2n1CCC3 | -11 | 1.99
CC(=O)c1cc(C(=O)NCCc2ccccc2C(F)(F)F)[nH]n1 | -22 | 1.96
Cc1nnc(NCC2(N3CCOCC3)CCCCC2)c(C#N)c1C | -10 | 1.68
O=S(=O)(NCC1(Cn2ccnc2)CC1)c1cn[nH]c1 | -17 | 3.39
Cc1cc(C)nc(CN(C)C(=O)CCCn2cnnn2)c1 | -7 | 1.29
COc1ccc2c(c1)N1CCN(c3ccccc3)CC1C(C(=O)NCc1ccccn1)C2 (stereo unspecified) | -1 | 0.15
CC[C@](C)(NC(=O)C(F)(F)F)c1nnnn1-c1cccc(C)c1 | 2 | -0.18
CCCc1c(NC(=O)N2CCC=C(C)C2)cnn1-c1cccc(C)c1 | -14 | 2.7
COc1ccc(NC(=O)CN2C(=O)CC(c3ccccc3)=Nc3cccnc32)cc1Cl | 27 | -3.01

Compound | % Inhibition [%] | Z score
Cc1ccc2ncc(CNc3nnc([C@@H]4Cc5ccccc5O4)o3)n2c1 | -2 | 0.2
CC(C)OCCC(=O)N(C)[C@H]1CCN(CC(F)(F)F)C1=O | -7 | 0.92
Fc1ccc(C[n+]2csc3ccccc32)cc1 | -29 | 5.5
Cc1ccc(C(O)CN2CCCC2c2cnn(C)c2)cc1C (stereo unspecified) | 1 | -0.13
FC(F)(F)c1cnccc1N1CC[C@H](c2ccccn2)C1 | -18 | 2.2
Cc1noc(C)c1C(=O)N[C@@H]1c2cccc(Br)c2CC1(C)C | 3 | -0.41
Cc1n[nH]cc1CNCC1(c2ccccc2)CC1 | -14 | 2.16
CCn1ccnc1CNC(=O)c1sc(C)nc1C | -6 | 1.04
Cn1nccc1-c1ccnc2nc(CCc3c[nH]c4ccccc34)nn12 | -14 | 2.34
O=C(CO)N[C@H]1CN(Cc2c(Cl)cncc2Cl)C[C@@H]1C1CC1 | -8 | 1.57
Cc1c(Cl)cccc1S(=O)(=O)N(C)C[C@H]1CC(=O)N(C(C)(C)C)C1 | -16 | 1.59
CCCCC[C@H](NC(=O)c1scnc1C)C(=O)O | -9 | 1.41
N#Cc1sccc1-c1cccc(-c2cc[nH]n2)c1 | 6 | -0.79
CCn1cnc2cc(-c3noc(-c4ccc(C(F)(F)F)cc4)n3)ccc21 | 0 | -0.05
CCC(=O)N1CCCCC1C1CCCN(C(=O)OC(C)(C)C)C1 (stereo unspecified) | -3 | 0.34
C[C@H](NCc1c2c(nn1C)CCCC2)c1ccc(F)cc1N(C)C | -14 | 1.73
CC[C@H](OC1CCCCC1)C(=O)NCc1nc(-c2ccco2)n[nH]1 | -3 | 0.56
Cc1ncc(C(=O)N2C(C)CCC2C)c(O)c1Br (stereo unspecified) | -16 | 1.61
O[C@H]1[C@H](NCc2ccccn2)[C@H]2CO[C@H](O2)[C@@H]1n1cc(Cl)cn1 | 10 | -1.58
Cc1ccn2c(NCc3csc(C)n3)nnc2c1 | -10 | 1.02
CCCc1nnc(NC(=O)CN2CCC(O)(c3ccccn3)CC2)s1 | -6 | 1.18
COc1cccc2sc(OC3CN(S(C)(=O)=O)C3)nc12 | -3 | 0.37

Compound | % Inhibition [%] | Z score
COc1ccc(NC(=O)C(C)N2C(=O)c3ccccc3C2c2c[nH]c3ccccc23)cc1 (stereo unspecified) | 5 | -0.66
CC(C)(C)OC(=O)NC(C)(C)c1cc(CN2CCNC(=O)C2)on1 | -9 | 0.97
CN1CC(NC(=O)C(C#N)Cc2ccc(C#N)cc2)Cc2ccccc21 (stereo unspecified) | -25 | 4.67
CCOc1ncccc1NC(=O)C1CCCCC1 | 2 | -0.38
CC(C)n1cc([C@]2(O)CCN(c3ccnc(C(=O)O)c3)C2)nn1 | -13 | 1.44
COc1cccc(C(=O)N2CCN(C(=O)C3(C)CC(=O)C3)CC2)c1 | -24 | 3.75
CCOc1ccc(NC(=O)[C@H]2Nc3cc(F)ccc3S(=O)(=O)N2)cc1 | -8 | 0.98
COc1cccc(S(=O)(=O)N2CCC(n3c(C)nn(C)c3=O)CC2)c1 | 9 | -1.27
NC(=O)Cn1cc(Nc2ccc(C(F)(F)F)cn2)cn1 | 4 | -0.49
CC(C#N)(NC(=O)CN1CCCC2(CC=CCC2)C1)C1CC1 (stereo unspecified) | -2 | 0.2
CCOc1ccc(NC2=NCCC2)cc1 | -13 | 1.56
Cc1cc(N[C@H]2CCc3ccccc3NC2=O)nc(C)n1 | 4 | -0.57
CCNC(=O)CCC(=O)N1CCc2ncc(C(F)(F)F)cc2C1 | -1 | 0.1
COc1cc(C(=O)N(C)C)ccc1NC(=O)N1CCC[C@@H]1CN1CCOCC1 | -2 | 0.28
O=C1CC(c2ccc(Cl)cc2)CC(=O)N1Cc1ccc(F)cc1 | -1 | 0.22
C[C@]1(/[N+]([O-])=C/c2cccc(Cl)c2)CCCCC1=O | -7 | 0.82
N#CC1(NC(=O)c2ccc3ccccc3c2)CCCCC1 | 5 | -0.45
NC(=O)[C@H]1CCCN(Cc2ccc3c(c2)CN(Cc2cccc(C(F)(F)F)c2)CCO3)C1 | -4 | 0.54
Cc1ccc(-c2ccc3nn(Cc4cccc(F)c4)c(=O)n3n2)cc1C | -12 | 1.51
Cc1cc(C(=O)NCC2(COc3ccccc3)CC2)nc(N)n1 | 15 | -2
O=C(NCC[C@H]1CCc2ccccc2N1)c1ncoc1-c1ccon1 | 14 | -1.79
Cc1ncccc1OCC(=O)NCc1ccc(Cl)s1 | 28 | -3.8

Compound | % Inhibition [%] | Z score
Cc1cccc([C@@H]2CCCCN2C2CCOCC2)c1C | -10 | 0.96
CCn1c(-c2cc(NC(=O)c3cc(C)cc(C)c3)[nH]n2)cc2ccc(OC)cc21 | 17 | -1.96
O=S(=O)(c1ccsc1)N1CC2CCC(C1)O2 | -9 | 0.75
COCC[C@H](NC(=O)c1cnc2c(c1)ncn2C)C(C)C | 28 | -3.81
Cc1csc(CNc2cccc(CN3CC(C)OC(C)C3)c2)n1 (stereo unspecified) | -11 | 1.42
O=C(Cn1cnc2ccccc2c1=O)c1ccc2c(c1)OCCO2 | -6 | 1.25
CCC[C@H]1CN(S(C)(=O)=O)C[C@@H]1NC(=O)c1ccc(C)n(C)c1=O | -6 | 0.85
c1ccc2oc(CN3CCOC4CCCCC43)nc2c1 (stereo unspecified) | 2 | -0.22
Cn1cc(C(=O)NCCOc2ccc3ccccc3n2)cn1 | 41 | -4.63
O=C(NCc1ccc(N2CCCC2)cc1)c1cccc(S(=O)(=O)N2CCOCC2)c1 | -10 | 1.7
CCc1cccc(Nc2c(C(=O)OC(C)C)cnc3nc(C)ccc23)c1 | -7 | 0.87
CCOc1ccccc1CN1CCN(Cc2nnc(C)s2)[C@@H](C)C1 | -20 | 1.8
CC(C)(C)CN1CCN(S(C)(=O)=O)CC1 | -1 | 0.12
CCOC1CC(CC(=O)Nc2cc(-c3cccc(F)c3)on2)C1 (stereo unspecified) | -8 | 1.45
Nc1c(C(=O)c2ccco2)oc2ccccc12 | 4 | -0.39
CCCC[C@@H](C(=O)Nc1cc(C)on1)N1CC(n2cc(C)cn2)C1 | -6 | 0.82
C[C@]1(Cc2cccc(F)c2)CCCN1C(=O)c1cc(C(N)=O)c[nH]1 | -1 | 0.25
Cc1ccc2c(c1)C(=O)N(CCC(=O)N1C3CCC1CC(=O)C3)C2=O | -6 | 0.93
COCc1nccc(NC[C@H]2CCN(c3ccccc3)C2)n1 | -5 | 0.72
Cn1nc(C2CCC2)n(CC(F)(F)F)c1=O | -16 | 2.36
Cn1cc(CN(CC2CC2)C2CCC2)cn1 | -8 | 0.71
CCCOc1ccccc1OC(=O)c1ccc(Cl)c(N2CCCC2=O)c1 | 10 | -1.28
